Measured values from PubChem BioAssay (NCI).
Several values for one entry are separate records, joined by “and”; a condition that tells them apart may be missing. Equal entries are not always repeated.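 Interpolation was linear, between the two tested concentrations surrounding the appropriate level; five concentrations were tested over 48 hours in 96-well plates. The concentration for 50% growth inhibition is given as GI50. TGI denotes the concentration required for complete inhibition of growth.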 Numbered stars: 1 amine (or outer) side, 2 acyl side, 3 side chain; on linkers, the order of the positions; unused ones are H or OH. Square brackets hold non-standard residues; d marks the D form. Peptide text beside a SMILES is read from it. * marks the point of attachment. X27 = CC(=O)N(C)SCC(N[*:1])C(=O)[*:2]; Cbz = O=C(OCc1ccccc1)*; Bn = c1ccc(C*)cc1

test system: NCI-H322M lung; assay: NCI tumour cell line growth inhibition, 48 h

Structure (SMILES) | TGI | GI50
C[N+](C)(C)CC(=O)N/N=C/c1ccncc1 | > 100 µM | 
O=C(Nc1cccc2c1[nH]c1c(-c3ccccc3)nccc12)c1ccccc1[N+](=O)[O-] | > 100 µM | 
NCOC(=O)Cc1ccc(Br)cc1 | > 100 µM | 
C[C@@H](Oc1ccc(C(=O)NS(=O)(=O)C(C)(C)C)cc1C(F)(F)F)c1ccc(Oc2ccccc2)cn1 | 16.3 µM | 4.24 µM
CCOC(=O)C(=O)/C(=C/N1C(=O)CC(=O)NC1=S)C(=O)OCC | > 100 µM | 
CCOP(=O)(OCC)/C(C#N)=C/c1cnc[nH]1 | > 100 µM | 
CC#CC1C2CCCC1(CSc1ccccc1)NC(=O)O2 (centres undefined) | > 100 µM | 
c1ccc2c(c1)NC1(N3CCCCC3)CCCCC21 (centres undefined) | > 100 µM | 
COc1ccc2nc3cc(Cl)ccc3c(Sc3ccc([N+](=O)[O-])cc3)c2c1 | > 100 µM | > 100 µM
CC(=O)[CH-]C(=O)c1ccccc1.CC(=O)[CH-]C(=O)c1ccccc1.C[C@]12CCC(=O)C=C1CC[C@@H]1C2CC[C@@]2(C)C1CC[C@@H]2[O-].C[C@]12CCC(=O)C=C1CC[C@@H]1C2CC[C@@]2(C)C1CC[C@@H]2[O-].Cl.[Ti+4] (some centres undefined) | > 100 µM | 29.4 µM
NC12CCC(CC1=O)C2 (centres undefined) | > 100 µM | 
CCNC(=O)O/N=C1\CCC2[C@@H]3CC=C4C[C@@H](OC5CCCCO5)CC[C@]4(C)C3CC[C@]12C (some centres undefined) | 19.9 µM | 
Cc1ccc2nc(C=Nc3ccc(Cl)cc3)cc(C)c2c1 | > 100 µM | 
Cc1cc(N(CCCl)CCCl)ccc1C=Nc1ccc2ccccc2c1 | > 100 µM | > 100 µM
Cc1c2ccncc2c(C)c2c1[nH]c1ccc(OCC(F)(F)F)cc12 | 3.59 µM | 
COc1cc([N+](=O)[O-])c(OC)cc1-c1nc2sc(Cl)cn2c1/C=N/NC1=NCCN1 | 2.6 µM | 1.23 µM
COc1ccc(/C=C2\CCC/C(=C\c3ccc(O)c(CN4CCCCC4)c3)C2=O)cc1 | > 81.4 µM | 
COC(=O)C(Cc1nc2ccccc2nc1C)/C(=N\NC(N)=O)C(=O)Nc1cccc([N+](=O)[O-])c1 (centres undefined) | > 100 µM | 
COc1cccc(NC(=O)C(=O)C(C(=O)c2ccccc2F)C2OC(=O)c3ccccc32)c1 (centres undefined) | > 100 µM | 
Cc1cc(C)nc(NS(=O)(=O)c2ccc(Nc3c4ccc(Cl)cc4nc4c(C(=O)NCCN(C)C)cccc34)cc2)n1 | > 100 µM | 
CCN1Cc2nc3sc(C)c(C)c3c(=O)n2C=C1C | > 100 µM | 32.3 µM
Cc1ccccc1-n1c2nc(=O)n(C)c(=O)c-2nc2ccccc21 | 52.7 µM | 
COc1cc(-c2c(C#N)c(N)nc(N3CCOCC3)c2C#N)cc(OC)c1OC | > 100 µM | > 100 µM

Structure (SMILES) | TGI | GI50
CCOC(=O)C(C(=S)SC)c1nn2c(=O)cc(C)nc2s1 (centres undefined) | 39.1 µM | 
COC(=O)[C@H](Cc1ccc(OC(C)(C)C)cc1)N[C@H](C)C(=O)N[C@@H](Cc1ccccc1)C(=O)OCc1ccccc1 | > 100 µM | 
CC(C)(C)C1=CC(=C2C(=O)C(=O)c3ccccc3C2=O)C=C(C(C)(C)C)C1=O | > 100 µM | 
CCOC(=O)c1c2c(c(O)c3ccccc3c(O)n(Cc3ccccc3)c1C)C(=O)C=CC2=O | > 100 µM | 
COc1cc(/C=C/C(=O)N2CCN(C(=O)c3cc(OC)c(OC)c(OC)c3)CC2)ccc1OCCCOc1cc2c(cc1OC)C(=O)N1CCC[C@H]1C=N2 | 9.25 µM | 1.03 µM
CC1(c2ccccc2)CC(c2cccc([N+](=O)[O-])c2)=NO1 (centres undefined) | > 100 µM | 
CN1CCN(C)C12C=CC=CC21CC1 | > 100 µM | 
CC(=O)Nc1nnc(S(C)(=O)=O)s1 | > 100 µM | 
O=C(CCCl)NNC1=NCCCN1 | > 100 µM | 
COc1cc2c(cc1OCCCCOc1cc3c(cc1OC)C(=O)N1CCC[C@H]1C(=O)N3)N=C[C@@H]1CCCN1C2=O | 43.2 µM | 
COc1ccc(C(=O)/C=C/c2ccc(OCCSCCCCCCCCCCSCCOc3ccc(/C=C/C(=O)c4ccc(OC)c(OC)c4)cc3)cc2)cc1OC | > 100 µM | 
CC(=O)N(C)SCC(NC(=O)C(Cc1ccccc1)NC(=O)OCc1ccccc1)C(=O)NC(Cc1ccccc1)C(=O)NC(Cc1c[nH]c2ccccc12)C(=O)NC(CCCCNC(=O)OCc1ccccc1)C(=O)NC(C(=O)NC(CSN(C)C(C)=O)C(=O)NC(C(N)=O)C(C)OCc1ccccc1)C(C)OCc1ccccc1 (centres undefined) (Cbz-F[X27]FWK(Cbz)T(Bn)[X27]T(Bn)-NH2; configuration not given here) | > 100 µM | 
CC(=O)OC1CC2C3CCC4C[C@@H](NC(=O)C=C(C)C)CC[C@]4(C)C3CC[C@]2(C)[C@H]1C(C)N(C)C (some centres undefined) | 5.89 µM | 2.39 µM
O=c1oc2ccc(Br)cc2c(=O)n1-c1ccc(I)cc1F | 8.64 µM | 0.333 µM
O=C(C/C(=N/O)c1cc(-c2ccccc2)no1)c1ccccc1 | > 100 µM | 
COc1ccc2[nH]c3c(C)c4ccnc(NCCCN(C)CCCNc5ccc6ncn7c8ccccc8c(=O)c5c67)c4c(C)c3c2c1 | 6.18 µM | 
O=c1cn[nH]c(=S)n1/N=C/c1c[nH]c2ccccc12 | > 100 µM | 
CSC12c3cc(C)n(-c4ccccc4)c3CC(C)(C)CN1C(=O)C2Oc1ccccc1 (centres undefined) | > 100 µM | 
C=C(C(=C)P(=S)(c1ccccc1)c1ccccc1)P(=S)(c1ccccc1)c1ccccc1 | > 100 µM | 
c1ccc2c(c1)N=C(c1cccc3ccccc13)CC(c1ccc3c(c1)OCO3)S2 (centres undefined) | > 100 µM | 
CN(Cc1cc(Cl)cc(Cl)c1O)Cc1c(O)ccc2ccccc12 | 36.6 µM | 
N#C[Se]CCCNS(=O)(=O)C1CC2C=CC1C2 (centres undefined) | 3.89 µM | 0.852 µM
O=C1OCC2=C1C(c1ccc(Cl)c(Cl)c1)c1cc3c(cc1N2CCO)CCC3 (centres undefined) | 8.63 µM | 0.249 µM

Structure (SMILES) | TGI | GI50
O=C1C(Cl)N(c2cccc([N+](=O)[O-])c2)C1c1c[nH]c2ccccc12 (centres undefined) | 46.4 µM | 
c1ccc2cc(C[n+]3ccn(CCCCCCCCCCn4cc[n+](Cc5ccc6ccccc6c5)c4)c3)ccc2c1 | 18.4 µM | 3.55 µM
COC1OC(COC(=O)c2cc(O)c(O)c(O)c2)C(OC(=O)c2cc(O)c(O)c(O)c2)C(OC(=O)c2cc(O)c(O)c(O)c2)C1OC(=O)c1cc(O)c(O)c(O)c1 (centres undefined) | > 100 µM | 
COc1ccc(Nc2cc(C)nc(NCCCNc3ccnc4cc(Cl)ccc34)n2)cc1 | 5.26 µM | 1.95 µM
Cc1ccc(NC(=O)c2sc3nc4c(cc3c2N)C(=O)CCC4)cc1C | > 100 µM | 0.975 µM
Cn1cc(C2=C(c3cn(C)c4ccccc34)C(=O)NC2=O)c2ccccc21 | > 25 µM | > 20.7 µM
Cn1c(=O)c(Oc2ccc(F)cc2F)cc2cnc(NC3CCS(=O)(=O)CC3)nc21 | > 25 µM | > 25 µM
CC(=O)C1=C(C)N(c2ccc(C)cc2)C2(O)C3=C(C(=O)c4ccccc4C3=O)C(O)=CC12Cl (centres undefined) | > 100 µM | 
CSc1ccc(/C=C2\N=C(c3ccccc3)N(c3nc4cc(C)c(C)cc4s3)C2=O)cc1 | > 100 µM | 
NCC1OC(OC2C(CO)OC(OC3C(O)C(N)CC(N)C3OC3OC(CO)C(O)CC3N)C2O)C(N)C(O)C1OC1OC(CO)C(O)C(O)C1O (centres undefined) | > 50 µg/mL | > 50 µg/mL
CSc1ncc2c(n1)sc1c(=O)n(-c3ccccc3)cnc12 | > 100 µM | 
Cc1ccc(NC(=O)/C(Cl)=C(/Cl)C(=O)O)cc1 | > 100 µM | 
O=C(O)C12CCCCC1CCCC2 (centres undefined) | > 100 µM | 
CCN(CC)CCNc1ccc2nnn3c4ccc(O)cc4c(=O)c1c23 | 17.1 µM | 
CCN(CC)C1CCC(Nc2c(C(C)=O)cnc3ccc(-c4ccc(O)c(Cl)c4)cc23)CC1 (centres undefined) | 17.3 µM | 0.62 µM
CC(=O)c1cc(C(=O)c2ccc3c(c2)Sc2ccccc2N3)c2cc(C)ccn12 | > 100 µM | 0.207 µM
CCOC(=O)c1[nH]cc(C)c1-c1ccc2c(-c3ccccc3)nc3ccccc3n12 | 25.3 µM | 
COc1ccc2cc(-c3nc(N)nc(N4N=C(C)CC4(C)C)n3)c(=N)oc2c1 | 56.7 µM | 
CN1CCN(Cc2ccc(NC(=O)c3cccc(C#Cc4cnc(N)c5ncccc45)c3F)cc2C(F)(F)F)CC1 | 8.77 µM | 1.94 µM
COC1(O)c2cccc(Cl)c2C(=O)N1C1(C(N)=O)CCCCC1 (centres undefined) | > 100 µM | 
NN1C(=O)C(CCO)S/C1=N/N=C1/SC(CCO)C(=O)N1N (centres undefined) | > 100 µM | 
COC(=O)C1=C(C(=O)OC)SC2(S1)C(C(=O)OC)=C(C(=O)OC)Sc1c2ssc1=Nc1ccc(Cl)cc1 | 3.14 µM | 
CC1=CC(=O)CC(C)(C)C1/C=C/C(C)=C/C=C/C(C)=C/C=C/C=C(C)/C=C/C=C(C)/C=C/C1=C(C)CC(O)CC1(C)C (centres undefined) | > 100 µM | 

Structure (SMILES) | TGI | GI50
COc1cc(C(=O)N/N=C/c2ccc(N(C)C)cc2)cc(OC)c1OC | > 100 µM | 0.904 µM
COC(=O)C1=C(C(=O)OC)C2(C)Nc3ccccc3C2=C(c2ccccc2)C1 (centres undefined) | 45.6 µM | 
CN1C/C=C/CCOc2cccc(c2)-c2ccnc(n2)Nc2cccc(c2)C1 | 0.805 µM | 0.0429 µM
NNC(=O)N/N=C1\C(=O)N(c2ccc(Cl)c(Cl)c2)C(=O)C(=O)C1c1nc2ccccc2s1 (centres undefined) | > 100 µM | 
O=C1c2cccc(NCCN=Cc3ccccc3O)c2C(=O)c2c(NCCN=Cc3ccccc3O)cccc21 | 3.61 µM | 0.59 µM
CCCCCC/C=C1\CCC(CN2CCOCC2)C1=O (centres undefined) | 49.7 µM | 
CC(C)(C)c1c2c(c(C(C)(C)C)c3c1OCN(Cc1ccccc1)C3)OCN(Cc1ccccc1)C2 | 50 µM | 
O=C1CC(=O)NC(=NNS(=O)(=O)c2ccccc2)N1 | > 100 µM | 
CC1(C)[C@@H](OC(=O)CCC(=O)O)CC[C@]2(C)[C@H]3C(=O)C=C4[C@@H]5C[C@@](C)(C(=O)O)CC[C@]5(C)CC[C@@]4(C)[C@]3(C)CC[C@@H]12 | 89.1 µM | 56 µM
COc1ccc(C2C=C(c3ccc4c(c3)OCO4)Oc3c2c(=O)oc2ccccc32)cc1OC (centres undefined) | > 100 µM | 
Cc1c(O)c2c(c(O)c1Br)C(=O)C=CC2=O | 2.98 µM and 3.67 µM | 1.96 µM
COc1ccccc1NC(=O)c1nc2ccc([N+](=O)[O-])cc2nc1C | > 100 µM | 
OCCOc1ccccc2cccc1-2 | > 100 µM | 
CC(=O)N1N=C2/C(=C/c3ccc(Cl)cc3)CC(C)CC2C1c1ccc(Cl)cc1 (centres undefined) | > 100 µM | 32.9 µM
N/N=c1\c2ccccc2c2cc3c(cc12)/c(=N/N)c1ccccc13 | > 100 µM | 
CCCCCCCCn1ccc2cc(NC(=O)Cn3cc(CN4CCCCC4)nn3)ccc21 | 3.2 µM | 1.63 µM
COc1ccc(C(=O)C(c2ccc(OCc3ccccc3)cc2)c2ccc(OCc3ccccc3)cc2)cc1 | > 100 µM | 
O=C1c2ccccc2-c2c1c1ccccc1c(=O)n2CCCNCCCCNCCCN1C(=O)c2ccccc2C2C(=O)c3ccccc3C21 (centres undefined) | 0.617 µM | 0.095 µM
O=C(O)CCCc1ccc2ccccc2c1 | > 100 µM | 
CN(C)c1ccc(/C=C/C2=[N+](C)c3ccccc3C2(C)C)cc1 | 20.7 µM | 2.14 µM
